Among the test systems are HCC-2998 colon; OVCAR-8 ovarian; HCT-116 colon; KM12 colon; SW-620 colon; CCRF-CEM leukemia; RPMI-8226 leukemia; SK-MEL-28 melanoma; SF-268 CNS; HOP-18 NSCLC; NCI/ADR-RES ovarian; EKVX NSCLC; SNB-19 CNS; HT29 colon; PC-3 prostate; OVCAR-4 ovarian; MOLT-4 leukemia; HL-60(TB) leukemia; SF-295 CNS; LOX IMVI melanoma; OVCAR-5 ovarian; MDA-MB-435; MCF7 breast; CAKI-1 renal; MDA-N; A549 NSCLC; SK-OV-3 ovarian; MALME-3M melanoma; 786-0 renal; HOP-62 NSCLC; U251 CNS; UACC-257 melanoma; NCI-H522 lung; OVCAR-3 ovarian; SK-MEL-5 melanoma; RXF 393 renal; COLO 205 colon; UACC-62 melanoma; T-47D breast; HOP-92 NSCLC; IGROV1 ovarian; A498 renal; SF-539 CNS; DU-145 prostate; UO-31 renal; SNB-75 CNS; NCI-H226 lung; MDA-MB-231 breast.

Holding throughout (test): growth of human tumour cells (NCI), 48 h

The structures appear in SMILES notation.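 A five-concentration, 48-hour dose response in 96-well plates underlies each endpoint, interpolated linearly between surrounding concentrations. GI50 marks 50% less growth.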 Certain results were filed several times, with different values. They are shown here; other results are not. The source may hold further records. For some assays here: Records of one sample usually come from different ranges of test concentrations, not given here; some values may only mark the edge of a range. Marks in square brackets tell the records apart. The letters are not those of the source and start again with each entry. For some assays here: The records of an entry are repeated measurements in other runs, samples, wells, individuals or studies.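 Definition used: TGI = concentration required for complete inhibition of growth.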

Regarding `C=C(C)[C@]12CC(C)C34OC(/C=C\C=C\CCCCCCCCC)(O[C@@H]1[C@@H]3[C@@H]1O[C@]1(CO)[C@@H](O)[C@]1(O)C(=O)C(C)=C[C@@H]41)O2` (stereo partly drawn), the TGI in the assay with HCC-2998 colon is 293 nM and 11.7 µM.
As for `CC[C@@]1(OC(=O)CN(C)C)C(=O)OCc2c1cc1n(c2=O)Cc2cc3ccccc3nc2-1`, the TGI in the assay on OVCAR-8 ovarian was 1.95 µM and > 100 µM; in the assay on HCT-116 colon, 3.41 µM and > 100 µM; in the assay with KM12 colon it was 2.52 µM and > 65 µM; in the assay on SW-620 colon it was 4.64 µM and > 100 µM; in the assay with CCRF-CEM leukemia, 44 nM and 4.41 µM; with RPMI-8226 leukemia, 414 nM and > 44.6 µM. The TGI with SK-MEL-28 melanoma is 7.58 µM and > 100 µM; with SF-268 CNS it was 6.72 µM and > 100 µM; with HOP-18 NSCLC, 1.71 µM and 82.3 µM; with NCI/ADR-RES ovarian, 315 nM and > 100 µM; with EKVX NSCLC it was 9.99 µM and > 100 µM; in the assay on SNB-19 CNS it was 9.14 µM and > 100 µM. Moreover, the TGI in the assay on HT29 colon was 7.21 µM and > 100 µM; with PC-3 prostate, 9.92 µM and > 100 µM.
`CCCOc1c2cc(COC3OC(CO)C(O)C(O)C3O)cc1Cc1cc(COC3OC(CO)C(O)C(O)C3O)cc(c1OCCC)Cc1cc(COC3OC(CO)C(O)C(O)C3O)cc(c1OCCC)Cc1cc(COC3OC(CO)C(O)C(O)C3O)cc(c1OCCC)C2` (stereo not drawn): in the assay with OVCAR-4 ovarian, the GI50 was 3.76 µM [sample A, 1 test] and > 100 µM [sample B, 1 test] and 25.6 µM [sample C, 1 test].
`C=CCN1C(=O)/C(=C/c2ccc(Cl)cc2)N=C1SC1OC(COC(C)=O)C(OC(C)=O)C(OC(C)=O)C1OC(C)=O` (stereo not drawn): the GI50 with MOLT-4 leukemia is > 64.4 µM [sample A, mean of 2 tests] and 5.01 µM [sample B, 1 test]. In the assay on HL-60(TB) leukemia, the TGI is > 100 µM [sample A, mean of 2 tests] and 9.8 µM [sample B, 1 test].
Take `COc1ccc(CC2C(=O)NC(C)C(=O)N(C)C3Cc4ccc(cc4)Oc4cc(ccc4O)CC(C(=O)NC(C)C(=O)NC(C)C(=O)N2C)N(C)C3=O)cc1` (stereo not drawn): the GI50 is 0.305 nM, 11.3 nM [1 test] and 17.5 nM [mean of 4 tests] in the assay on SF-295 CNS; 0.141 nM [1 test] and 17.5 nM [mean of 4 tests] with OVCAR-5 ovarian; 0.843 nM, 50.9 nM [1 test] and 17.5 nM [mean of 4 tests] in the assay on A549 NSCLC. The TGI is 17.9 nM, 18.2 µM [1 test] and 80.9 nM [mean of 4 tests] in the assay with SF-295 CNS; 0.157 nM and 124 nM in the assay on LOX IMVI melanoma; 58.8 nM and 697 nM in the assay on MOLT-4 leukemia; 1.16 nM and 13.9 nM in the assay on MDA-MB-435; 1.01 nM and 32.4 nM with MCF7 breast; 877 nM, 12.6 µM, 849 nM with SW-620 colon. Also, the TGI in the assay with CAKI-1 renal is 23.2 µM [1 test] and 789 nM [mean of 3 tests]; in the assay with SK-MEL-28 melanoma, 257 nM and 22.3 nM; with SF-268 CNS it was 0.26 nM and 12.2 nM; in the assay with MDA-N it was 0.366 nM and 10.6 nM; in the assay with SK-OV-3 ovarian, 70.6 µM and 135 nM; in the assay on MALME-3M melanoma, 8.5 nM, 117 nM, 27.6 nM. Also, the TGI in the assay on 786-0 renal was 11.3 nM and 117 nM; in the assay with HL-60(TB) leukemia it was 1.57 nM and 377 nM; with HOP-62 NSCLC, 246 nM, 4.4 µM, 71.7 nM; with U251 CNS, 0.751 nM and 19.1 nM; with UACC-257 melanoma it was 0.64 nM and 22.1 nM; in the assay on NCI-H522 lung, 0.324 nM and 106 nM.
Consider `Cc1cc(N)c2ccccc2[n+]1CCCCCCCCCC[n+]1c(C)cc(N)c2ccccc21`, for which the GI50 is 6.56 µM [sample A, 1 test] and 378 nM [sample B, mean of 2 tests] in the assay with OVCAR-3 ovarian; 1.75 µM [sample A, 1 test] and 141 nM [sample B, mean of 2 tests] with MCF7 breast; 1.8 µM [sample A, 1 test] and 176 nM [sample B, mean of 2 tests] in the assay on RXF 393 renal; 2.86 µM [sample A, 1 test] and 209 nM [sample B, mean of 2 tests] in the assay on SF-268 CNS; 7.01 µM [sample A, 1 test] and 273 nM [sample B, 1 test] with SK-OV-3 ovarian; 1.69 µM [sample A, 1 test] and 93.5 nM [sample B, mean of 2 tests] with COLO 205 colon. Also, the GI50 in the assay with EKVX NSCLC was 2.23 µM [sample A, 1 test] and 127 nM [sample B, mean of 2 tests]; with SNB-19 CNS, 2.38 µM [sample A, 1 test] and 171 nM [sample B, mean of 2 tests]; in the assay on OVCAR-4 ovarian, 28.6 µM [sample A, 1 test] and 192 nM [sample B, mean of 2 tests]; in the assay with UACC-257 melanoma, 1.95 µM [sample A, 1 test] and 126 nM [sample B, mean of 2 tests]. In addition, the TGI was 25.8 µM, > 100 µM [sample A] and 1.44 µM [sample B] in the assay on OVCAR-3 ovarian; 13.8 µM, > 100 µM [sample A] and 2.89 µM [sample B] in the assay on HCT-116 colon; 1.62 µM, 1.9 µM [sample A] and 170 nM [sample B] with SK-MEL-5 melanoma; 3.25 µM, > 100 µM [sample A] and 3.41 µM [sample B] in the assay on MCF7 breast; 40.2 µM, 5.8 µM [sample A] and 1.65 µM [sample B] in the assay with RXF 393 renal; 26.7 µM, > 100 µM [sample A] and 1.69 µM [sample B] in the assay with SK-OV-3 ovarian. Besides, the TGI is 17 µM, 3.87 µM [sample A] and 1.04 µM [sample B] with MALME-3M melanoma; 8.21 µM, 5.63 µM [sample A] and 197 nM [sample B] in the assay on COLO 205 colon; 9.59 µM [sample A] and 841 nM [sample B] in the assay with UACC-62 melanoma; 50 µM [sample A] and 1.24 µM [sample B] with T-47D breast; 50 µM, > 100 µM [sample A] and 5.27 µM [sample B] in the assay with OVCAR-4 ovarian; 50 µM [sample A] and 1.45 µM [sample B] in the assay on HOP-92 NSCLC. The TGI is 16.9 µM, > 100 µM [sample A] and 7.32 µM [sample B] in the assay on IGROV1 ovarian; 48 µM, 14.1 µM [sample A] and 859 nM [sample B] in the assay with UACC-257 melanoma; 50 µM [sample A] and 1.01 µM [sample B] with A498 renal.
Take `COc1cc(OC)c(/C=C/S(=O)(=O)Cc2ccc(OC)c(NCC(=O)O)c2)c(OC)c1`: the GI50 with CAKI-1 renal was 74.8 nM [sample A, mean of 2 tests] and 1.01 µM [sample B, mean of 2 tests]; in the assay with MALME-3M melanoma it was 283 nM [sample A, mean of 2 tests] and > 100 µM [sample B, 1 test]; in the assay with UACC-62 melanoma, 38.6 nM [sample A, 1 test] and 1.33 µM [sample B, mean of 2 tests]; in the assay with HOP-92 NSCLC it was 252 nM [sample A, mean of 2 tests] and 24.3 nM [sample B, 1 test]; with UO-31 renal, 200 nM [sample A, mean of 2 tests] and 13.6 µM [sample B, mean of 2 tests]. In addition, the TGI in the assay with SF-539 CNS is 746 nM [sample A, 1 test] and > 100 µM [sample B, 1 test]; in the assay on HL-60(TB) leukemia, 614 nM [sample A, mean of 2 tests] and > 100 µM [sample B, mean of 2 tests]; with HOP-92 NSCLC, > 10 µM [sample A, mean of 2 tests] and 853 nM [sample B, 1 test]; in the assay with DU-145 prostate it was > 10 µM [sample A, mean of 2 tests] and 954 nM [sample B, 1 test].
With `CCCCCCCCCCCCCCCC(=O)N[C@H]1CCc2cc(OC)c(OC)c(OC)c2-c2ccc(SC)c(=O)cc21`, the TGI is 680 nM and > 100 µM in the assay on SNB-75 CNS; 7.49 µM and 94.2 µM in the assay on EKVX NSCLC.
For the compound `COc1cc(OC)cc(N2CCN(C(=O)Nc3nc4cc(F)ccc4nc3OC)CC2)c1`, the TGI in the assay on OVCAR-3 ovarian is 15.4 µM [sample A, mean of 2 tests] and 68.7 nM, 71.8 nM [sample B, 1 test]; in the assay with NCI-H226 lung it was > 100 µM [sample A, mean of 2 tests] and 615 nM, 70.2 µM [sample B, 1 test]; in the assay on SF-539 CNS, 923 nM [sample A, mean of 2 tests] and 70 nM, 49.9 nM [sample B, 1 test]; in the assay on HL-60(TB) leukemia, 55.9 nM [sample A, mean of 2 tests] and 93.3 nM, 5.71 µM [sample B, 1 test]; in the assay on HT29 colon it was 22.2 µM [sample A, mean of 2 tests] and 84.7 nM [sample B, 1 test]; with A498 renal it was 1.37 µM [sample A, mean of 2 tests] and 77.1 nM, 68.1 nM [sample B, 1 test]. In the assay on MDA-MB-231 breast, the TGI is 22.1 µM [sample A, mean of 2 tests] and 284 nM [sample B, 1 test]. Also, the GI50 in the assay with OVCAR-4 ovarian is 960 nM [sample A, mean of 2 tests] and 86 nM, 57.4 nM [sample B, 1 test].

(Values after PubChem BioAssay (NCI).)
